Experimental data: the supplement of paper PMC10369915
This is one part of the list. No stated cut-off is given here; in the data, active = 3.2 or more and inactive = the rest. The signal is at background level for most entries.

Biological target: SHP2 C-SH2 domain E139D
Test: enrichment score (SH2-bound / input frequency) (ratio); bacterial display of known human phosphotyrosine sites (pTyr-Var adds point mutants) read by sequencing; higher = stronger binding; tyrosines were phosphorylated by kinases first
Conditions: peptide library: Human pTyr
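Further: displayed peptides selected on beads carrying the immobilized SH2 domain, with library peptides lacking any tyrosine serving as negative controls.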

Enrichment score, inactive:
AEIGEGAYGKVFKAR [CDK6_HUMAN_24] 0.841, TPLTPSQYASGSKAE [CENPF_HUMAN_158_YA] 0.762, NIIFGVSYDEYRYRS [CFTR_HUMAN_512] 1.33, NIIFGVSYDEARARS [CFTR_HUMAN_512_YA] 0.622, GWEQNGLYEFFRAKM [CHERP_HUMAN_714] 1.72, KMTTNPIYEHIGAAT [CHN2_HUMAN_153_YA] 0.931, YNVSTTPYLQSVKKK [CKAP2_HUMAN_599] 0.962, EENESPHYDDVHEYL [CLIC5_HUMAN_33] 0.98, EPGEQPIYMNFSEPL [CLM7_HUMAN_188] 0.85, GQTVDDPYATFVKML [COF1_HUMAN_68] 0.997, IPEPAHAYAQPQTTT [CRKL_HUMAN_207] 0.626, DPEGGVDYKNIHLEK [CSF1R_HUMAN_699] 1.14, DIMNDSNYIVKGNAR [CSF1R_HUMAN_809] 0.584, DVCEAMEYLEGNNFV [CSK_HUMAN_304] 1.53, DVNIRNTYNQTALDI [CSKI2_HUMAN_253] 0.626, DWGLAEFYHPGQEYN [CSNK2A1_HUMAN_182] 0.828, VDTSQVLYEWEQGFS [CTNB1_HUMAN_64] 0.693, VADIDGQYAMTRAQR [CTNB1_HUMAN_86] 0.667

Biological target: SHP2 C-SH2 domain wild-type
Test: as above
Conditions: peptide library: Human pTyr

Enrichment score, inactive:
AEIGEGAYGKVFKAR [CDK6_HUMAN_24] 0.823, TPLTPSQYASGSKAE [CENPF_HUMAN_158_YA] 0.55, NIIFGVSYDEYRYRS [CFTR_HUMAN_512] 1.59, NIIFGVSYDEARARS [CFTR_HUMAN_512_YA] 0.532, GWEQNGLYEFFRAKM [CHERP_HUMAN_714] 1.57, KMTTNPIYEHIGAAT [CHN2_HUMAN_153_YA] 0.866, YNVSTTPYLQSVKKK [CKAP2_HUMAN_599] 0.962, EENESPHYDDVHEYL [CLIC5_HUMAN_33] 1.06, EPGEQPIYMNFSEPL [CLM7_HUMAN_188] 0.635, GQTVDDPYATFVKML [COF1_HUMAN_68] 1.12, IPEPAHAYAQPQTTT [CRKL_HUMAN_207] 0.687, DPEGGVDYKNIHLEK [CSF1R_HUMAN_699] 0.89, DIMNDSNYIVKGNAR [CSF1R_HUMAN_809] 0.548, DVCEAMEYLEGNNFV [CSK_HUMAN_304] 1.29, DVNIRNTYNQTALDI [CSKI2_HUMAN_253] 0.529, DWGLAEFYHPGQEYN [CSNK2A1_HUMAN_182] 0.648, VDTSQVLYEWEQGFS [CTNB1_HUMAN_64] 0.58, VADIDGQYAMTRAQR [CTNB1_HUMAN_86] 0.581

Biological target: SHP2 N-SH2 domain L43F
Test: as above
Conditions: peptide library: Human pTyr

Enrichment score, inactive:
AEIGEGAYGKVFKAR [CDK6_HUMAN_24] 0.813, TPLTPSQYASGSKAE [CENPF_HUMAN_158_YA] 0.856, NIIFGVSYDEYRYRS [CFTR_HUMAN_512] 1.03, NIIFGVSYDEARARS [CFTR_HUMAN_512_YA] 0.655, GWEQNGLYEFFRAKM [CHERP_HUMAN_714] 1.5, KMTTNPIYEHIGAAT [CHN2_HUMAN_153_YA] 1.13, YNVSTTPYLQSVKKK [CKAP2_HUMAN_599] 0.824, EENESPHYDDVHEYL [CLIC5_HUMAN_33] 1.07, EPGEQPIYMNFSEPL [CLM7_HUMAN_188] 0.744, GQTVDDPYATFVKML [COF1_HUMAN_68] 0.877, IPEPAHAYAQPQTTT [CRKL_HUMAN_207] 0.702, DPEGGVDYKNIHLEK [CSF1R_HUMAN_699] 1.06, DIMNDSNYIVKGNAR [CSF1R_HUMAN_809] 0.654, DVCEAMEYLEGNNFV [CSK_HUMAN_304] 1.54, DVNIRNTYNQTALDI [CSKI2_HUMAN_253] 0.583, DWGLAEFYHPGQEYN [CSNK2A1_HUMAN_182] 0.689, VDTSQVLYEWEQGFS [CTNB1_HUMAN_64] 0.57, VADIDGQYAMTRAQR [CTNB1_HUMAN_86] 0.647

Biological target: SHP2 N-SH2 domain T42A
Test: as above
Conditions: peptide library: Human pTyr

Enrichment score, inactive:
AEIGEGAYGKVFKAR [CDK6_HUMAN_24] 0.88, TPLTPSQYASGSKAE [CENPF_HUMAN_158_YA] 0.69, NIIFGVSYDEYRYRS [CFTR_HUMAN_512] 1.12, NIIFGVSYDEARARS [CFTR_HUMAN_512_YA] 0.562, GWEQNGLYEFFRAKM [CHERP_HUMAN_714] 1.49, KMTTNPIYEHIGAAT [CHN2_HUMAN_153_YA] 0.984, YNVSTTPYLQSVKKK [CKAP2_HUMAN_599] 0.972, EENESPHYDDVHEYL [CLIC5_HUMAN_33] 1.15, EPGEQPIYMNFSEPL [CLM7_HUMAN_188] 0.705, GQTVDDPYATFVKML [COF1_HUMAN_68] 1.03, IPEPAHAYAQPQTTT [CRKL_HUMAN_207] 0.647, DPEGGVDYKNIHLEK [CSF1R_HUMAN_699] 0.983, DIMNDSNYIVKGNAR [CSF1R_HUMAN_809] 0.71, DVCEAMEYLEGNNFV [CSK_HUMAN_304] 1.41, DVNIRNTYNQTALDI [CSKI2_HUMAN_253] 0.557, DWGLAEFYHPGQEYN [CSNK2A1_HUMAN_182] 0.689, VDTSQVLYEWEQGFS [CTNB1_HUMAN_64] 0.629, VADIDGQYAMTRAQR [CTNB1_HUMAN_86] 0.666

Biological target: SHP2 N-SH2 domain T52S
Test: as above
Conditions: peptide library: Human pTyr

Enrichment score, inactive:
AEIGEGAYGKVFKAR [CDK6_HUMAN_24] 0.923, TPLTPSQYASGSKAE [CENPF_HUMAN_158_YA] 0.814, NIIFGVSYDEYRYRS [CFTR_HUMAN_512] 1.49, NIIFGVSYDEARARS [CFTR_HUMAN_512_YA] 0.543, GWEQNGLYEFFRAKM [CHERP_HUMAN_714] 1.84, KMTTNPIYEHIGAAT [CHN2_HUMAN_153_YA] 0.899, YNVSTTPYLQSVKKK [CKAP2_HUMAN_599] 0.876, EENESPHYDDVHEYL [CLIC5_HUMAN_33] 0.93, EPGEQPIYMNFSEPL [CLM7_HUMAN_188] 0.782, GQTVDDPYATFVKML [COF1_HUMAN_68] 0.818, IPEPAHAYAQPQTTT [CRKL_HUMAN_207] 0.68, DPEGGVDYKNIHLEK [CSF1R_HUMAN_699] 0.647, DIMNDSNYIVKGNAR [CSF1R_HUMAN_809] 0.658, DVCEAMEYLEGNNFV [CSK_HUMAN_304] 1.34, DVNIRNTYNQTALDI [CSKI2_HUMAN_253] 0.589, DWGLAEFYHPGQEYN [CSNK2A1_HUMAN_182] 0.617, VDTSQVLYEWEQGFS [CTNB1_HUMAN_64] 0.729, VADIDGQYAMTRAQR [CTNB1_HUMAN_86] 0.543

Biological target: SHP2 N-SH2 domain wild-type
Test: as above
Conditions: peptide library: Human pTyr

Enrichment score, inactive:
AEIGEGAYGKVFKAR [CDK6_HUMAN_24] 1.21, TPLTPSQYASGSKAE [CENPF_HUMAN_158_YA] 0.879, NIIFGVSYDEYRYRS [CFTR_HUMAN_512] 1.95, NIIFGVSYDEARARS [CFTR_HUMAN_512_YA] 0.54, GWEQNGLYEFFRAKM [CHERP_HUMAN_714] 2.2, KMTTNPIYEHIGAAT [CHN2_HUMAN_153_YA] 1.35, YNVSTTPYLQSVKKK [CKAP2_HUMAN_599] 1.04, EENESPHYDDVHEYL [CLIC5_HUMAN_33] 0.994, EPGEQPIYMNFSEPL [CLM7_HUMAN_188] 0.76, GQTVDDPYATFVKML [COF1_HUMAN_68] 0.926, IPEPAHAYAQPQTTT [CRKL_HUMAN_207] 0.663, DPEGGVDYKNIHLEK [CSF1R_HUMAN_699] 0.8, DIMNDSNYIVKGNAR [CSF1R_HUMAN_809] 0.881, DVCEAMEYLEGNNFV [CSK_HUMAN_304] 1.46, DVNIRNTYNQTALDI [CSKI2_HUMAN_253] 0.726, DWGLAEFYHPGQEYN [CSNK2A1_HUMAN_182] 0.612, VDTSQVLYEWEQGFS [CTNB1_HUMAN_64] 0.702, VADIDGQYAMTRAQR [CTNB1_HUMAN_86] 0.57
